These results are taken from the supplement of paper PMC11417369.

± gives the standard deviation of the averaged measurements. The list shows a part of the results.

For the experiment, the system named is PfAP2-G AP2 domain (GST-tagged). Kind of experiment: gcPBM binding intensity (ln(normalized median fluorescence intensity)); higher = stronger DNA binding. In a few lines:
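Binding intensity is defined as the maximum Masliner-normalised natural-log median intensity across replicate spots for either probe orientation. It was measured on an Agilent 4 × 180k array of primer-extended double-stranded 36-bp intergenic genomic probes and negative controls, to which GST-tagged P. falciparum DNA-binding domains made in E. coli were applied for 1 h in 1× PBS with 1% milk, 0.2 mg/ml BSA, 0.5% salmon testes DNA and 0.03% Triton X-100. Detection was by Alexa488 anti-GST antibody and scanning at 488 nm.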
Turning to “ACCGTTTTTGTGTAATGTACAAAATTTCTGACAGTG [XGTACX_site4999]”, the “gcPBM binding intensity (ln)” value was found to be 10.8 ± 0.3.
Consider “TTTTTTTTTTTAAGTTCACACATAAATTCGATTTAC [CACACA_site5057]”, for which the “gcPBM binding intensity (ln)” value was determined as 10.1 ± 0.26.
The figure for “ATGTATTTAATAAGAACACACATATATTTAATTTAA [CACACA_site5606]” is 9.79 ± 0.042; for “ATAATTTGTAAAAGGAGTACAAAACCATACTTTTTT [XGTACX_site6076]” it is 11.6 ± 1.1.
With “AAAGGAAAATTAAAAAGTACACATTTGAAAAAAAAA [XGTACX_site2724]” the figure was 11.6 ± 0.95; with “AAAGAAAAAGAAAAAGAAAAATTAGAATATAAAATA [CACACA_negctrl_site792]”, 9.22 ± 0.4.
With “AATGATCATATATACACACACACAAAAAAAAAAAAA [CACACA_site4009]” the figure was 9.95 ± 0.3.
As for “TTTATACATTTATATTGTACTAATTCGATTTTATAT [XGTACX_site5424]”, the “gcPBM binding intensity (ln)” value is 11 ± 0.63.
The figure for “CATTTATATAAATACACACACACAAAAAAAAAAAAA [CACACA_site5459]” is 10.1 ± 0.47; for “TAATAATAAAAAAATAGTACATAAATAAAAATAATA [XGTACX_site4774]” it is 11.3 ± 0.69.
The figure for “ATAAGAAATGTAACTTGTACATAAGGATATATATTT [XGTACX_site236]” is 11 ± 0.49; for “GGATTTTAATGAACACGTACATAAAATTAAATAAAT [XGTACX_site7023]” it is 11.4 ± 0.9; for “TAATTAATTTCTTTACGTACATAATTAATATATATA [XGTACX_site7372]” it is 11.2 ± 0.78.
With “ATATATATGTATAATCGTACAGTTAACGTATTCTTA [XGTACX_site5649]” the figure was 11.1 ± 0.68.
Take “AAACAGATAAATAAAAGTACACATTAAAAGGTAGCA [XGTACX_site4150]”: the “gcPBM binding intensity (ln)” value was 11.5 ± 0.83.
The figure for “GGGAGGATAGTTCACAGTACCCAGGAAATCTACGGA [XGTACX_site2553]” is 10.9 ± 0.53; for “GGTTCATAATATGGTTGTACATAAATATATATATAT [XGTACX_site7583]” it is 11.3 ± 0.71; for “TAACAAGGTTTATATGCATGCAAACATAACCAAAAA [TGCATGCA_site824]” it is 10.06 ± 0.042.
The figure for “AATGGGTAAACATACACACACACATCTATATTTATA [CACACA_site7025]” is 9.85 ± 0.11.
With “TATAAAAGACTAAATATTATAGAAATATAAATATAA [TGCATGCA_negctrl_site237]” the figure was 9.68 ± 0.12; with “TACTATATCATTTATTGTACAATATTTCTTCAGAAA [XGTACX_site1008]”, 11 ± 0.52.
“CTTTGCCTTAAAAAGGAACACACATGCTTTTTTTAG [CACACA_site8219]”: the “gcPBM binding intensity (ln)” value stood at 9.975 ± 0.035.
The figure for “ACAAAATTTACAAAATGTACAAAATATACAAAATAT [XGTACX_site6465]” is 10.5 ± 0.33; for “TATATATATATATATGTGCGCATATATTTTTTTGTA [GTGCAC_site9983]” it is 10.2 ± 0.31.
With “TATTTCTCACTGTATGGTACAGATATAAATTTTTAT [XGTACX_site8776]” the figure was 10.7 ± 0.37; with “AATAATATACATATATATATTATATTGTAATTTTGT [TGCATGCA_negctrl_site1]”, 9.705 ± 0.021; with “ACTAGACAAAATATAATGCACACTATTATTTTTATT [CACACA_site2726]”, 9.995 ± 0.035.
The figure for CATGAGGTATAAAAGGTGCAAATTAATGAGAACATT is 10.2 ± 0.21; for “TTATATCAAGGGAATGCATGCATATCGTTTTGTATT [TGCATGCA_site327]” it is 9.69 ± 0.25.
Turning to “TATTCTTATATATATACACACACAAAATATCTACAA [CACACA_site8144]”, the “gcPBM binding intensity (ln)” value came out at 10.1 ± 0.16.
With “TTGCATTGATCAAACATACACACATGGTTAATAAAA [CACACA_site2084]” the figure was 10.2 ± 0.22; with “TAATTATTATTAAATACACACACATACCTCCATGTT [CACACA_site9134]”, 10.09 ± 0.099; with “AAAAAAAAAAAATAGGTGCGTGTTACTTTTGTATGC [GTGCAC_site9524]”, 9.935 ± 0.078.
Take “CACAAATAAATATTCACACATATATGTCTTATATAT [CACACA_site5323]”: the “gcPBM binding intensity (ln)” value was 9.925 ± 0.007.
With “ATTACAATAAATTCGTGTACATGATACCGCCGCTAC [XGTACX_site8997]” the figure was 11.3 ± 0.88; with “ATCAAATTTTTGTTATGTACACAATCATTTAATAAA [XGTACX_site810]”, 11.3 ± 0.74; with “ATGAAATATGCACAGTGTACTTTTATGAGGAACATA [XGTACX_site426]”, 11.4 ± 0.81.
For the sequence “TTTTTAATACAAAAAAAATAATATGTTATATTTCAA [CACACA_negctrl_site35]”, the “gcPBM binding intensity (ln)” value was determined as 9.48 ± 0.11.
With “TATATATATATATATACACACACACCCACCAAAGCG [CACACA_site7904]” the figure was 10.5 ± 0.49; with “TGCCCTTTGGTTATAACACACATGCACACGTAAATA [CACACA_site7750]”, 10.3 ± 0.18; with “AATTAACCGTGACACACACACATATAAATATAAATA [CACACA_site7790]”, 10.3 ± 0.47.
On to “GGGAATATATAAGATACACACACAAATTAAATATAA [CACACA_site8898]”, for which the “gcPBM binding intensity (ln)” value was found to be 10.2 ± 0.13.
Consider “ATATATCTACATATATGTACATATATGTATATGTAT [XGTACX_site5432]”, for which the “gcPBM binding intensity (ln)” value amounted to 11 ± 0.46.
The figure for “ATATCCTACTTCTAGTGTACATATATGGACTGATGA [XGTACX_site3683]” is 11.4 ± 0.79; for “AATAAAATAATAGGCACACATATATATATATATTAT [CACACA_site273]” it is 10.1 ± 0.26.
